Measured values as given in the supplement of paper PMC8728848.
The other results are listed elsewhere or left out.

Columns and labels:
Experiment in all cases: glycan array binding signal (z-score within array); higher = stronger binding
Details in all cases: glycan notation: IUPAC condensed, linker removed
[1] = target: Neu5Ac(a2-3)Gal(b1-4)GlcNAc
Method in brief: (§1)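 The Consortium for Functional Glycomics database supplied 3228 glycan arrays, of which those lacking an available protein sequence were dropped. The binding signal, a within-array Z-score, was averaged across arrays of the same protein sequence and across linkers. Negative scores can be read as non-binding.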

[2] = target: Neu5Ac(a2-3)Gal(b1-4)GlcNAc(b1-2)Man(a1-3)[GlcNAc(b1-2)Man(b1-4)GlcNAc(b1-2)Man(a1-6)]Man(b1-4)GlcNAc(b1-4)GlcNAc
Method in brief: as §1

[3] = target: Neu5Ac(a2-3)Gal(b1-4)GlcNAc(b1-2)Man(a1-3)[Neu5Ac(a2-6)Gal(b1-4)GlcNAc(b1-2)Man(a1-6)]Man(b1-4)GlcNAc(b1-4)GlcNAc
Method in brief: as §1

[4] = target: Neu5Ac(a2-3)Gal(b1-4)GlcNAc(b1-3)Gal(b1-3)GlcNAc
Method in brief: as §1

[5] = target: Neu5Ac(a2-3)Gal(b1-4)GlcNAc(b1-3)Gal(b1-4)GlcNAc
Method in brief: as §1

[6] = target: Neu5Ac(a2-3)Gal(b1-4)GlcNAc(b1-3)Gal(b1-4)GlcNAc(b1-3)Gal(b1-4)GlcNAc
Method in brief: as §1

[7] = target: Neu5Ac(a2-3)Gal(b1-4)GlcNAc(b1-3)Gal(b1-4)[Fuc(a1-3)]GlcNAc
Method in brief: as §1

[8] = target: Neu5Ac(a2-3)Gal(b1-4)GlcNAc(b1-3)GalNAc
Method in brief: as §1

[9] = target: Neu5Ac(a2-3)Gal(b1-4)GlcNAc(b1-6)[Gal(b1-3)]GalNAc
Method in brief: as §1

[10] = target: Neu5Ac(a2-3)Gal(b1-4)GlcNAc(b1-6)[Neu5Ac(a2-3)Gal(b1-3)]GalNAc
Method in brief: as §1

[11] = target: Neu5Ac(a2-3)Gal(b1-4)GlcNAc6S
Method in brief: as §1

[12] = target: Neu5Ac(a2-3)Gal(b1-4)[Fuc(a1-3)]GlcNAc
Method in brief: as §1

[13] = target: Neu5Ac(a2-3)Gal(b1-4)[Fuc(a1-3)]GlcNAc(b1-3)Gal
Method in brief: as §1

[14] = target: Neu5Ac(a2-3)Gal(b1-4)[Fuc(a1-3)]GlcNAc(b1-3)Gal(b1-4)GlcNAc
Method in brief: as §1

[15] = target: Neu5Ac(a2-3)Gal(b1-4)[Fuc(a1-3)]GlcNAc(b1-3)Gal(b1-4)[Fuc(a1-3)]GlcNAc(b1-3)Gal(b1-4)[Fuc(a1-3)]GlcNAc
Method in brief: as §1

[16] = target: Neu5Ac(a2-3)Gal(b1-4)[Fuc(a1-3)]GlcNAc(b1-3)GalNAc
Method in brief: as §1

[17] = target: Neu5Ac(a2-3)Gal(b1-4)[Fuc(a1-3)]GlcNAc(b1-6)[Gal(b1-3)]GalNAc
Method in brief: as §1

[18] = target: Neu5Ac(a2-3)Gal(b1-4)[Fuc(a1-3)]GlcNAc(b1-6)[Neu5Ac(a2-3)Gal(b1-3)]GalNAc
Method in brief: as §1

[19] = target: Neu5Ac(a2-3)Gal(b1-4)[Fuc(a1-3)]GlcNAc6S
Method in brief: as §1

[20] = target: Neu5Ac(a2-3)Gal6S(b1-4)GlcNAc
Method in brief: as §1

[21] = target: Neu5Ac(a2-3)Gal6S(b1-4)[Fuc(a1-3)]GlcNAc
Method in brief: as §1

[22] = target: Neu5Ac(a2-3)GalNAc
Method in brief: as §1

[23] = target: Neu5Ac(a2-3)GalNAc(b1-4)GlcNAc
Method in brief: as §1

[24] = target: Neu5Ac(a2-3)[GalNAc(b1-4)]Gal(b1-4)Glc
Method in brief: as §1

[25] = target: Neu5Ac(a2-3)[GalNAc(b1-4)]Gal(b1-4)GlcNAc
Method in brief: as §1

[26] = target: Neu5Ac(a2-3)[GalNAc(b1-4)]Gal(b1-4)GlcNAc(b1-3)GalNAc
Method in brief: as §1

[27] = target: Neu5Ac(a2-3)[Neu5Ac(a2-6)]GalNAc
Method in brief: as §1

[28] = target: Neu5Ac(a2-6)Gal
Method in brief: as §1

[29] = target: Neu5Ac(a2-6)Gal(b1-4)Glc
Method in brief: as §1

[30] = target: Neu5Ac(a2-6)Gal(b1-4)GlcNAc
Method in brief: as §1

[31] = target: Neu5Ac(a2-6)Gal(b1-4)GlcNAc(b1-2)Man(a1-3)Man(b1-4)GlcNAc(b1-4)GlcNAc
Method in brief: as §1

[32] = target: Neu5Ac(a2-6)Gal(b1-4)GlcNAc(b1-2)Man(a1-3)[Gal(b1-4)GlcNAc(b1-2)Man(a1-6)]Man(b1-4)GlcNAc(b1-4)GlcNAc
Method in brief: as §1

[33] = target: Neu5Ac(a2-6)Gal(b1-4)GlcNAc(b1-2)Man(a1-3)[GlcNAc(b1-2)Man(a1-6)]Man(b1-4)GlcNAc(b1-4)GlcNAc
Method in brief: as §1

[34] = target: Neu5Ac(a2-6)Gal(b1-4)GlcNAc(b1-2)Man(a1-3)[GlcNAc(b1-2)Man(b1-4)GlcNAc(b1-2)Man(a1-6)]Man(b1-4)GlcNAc(b1-4)GlcNAc
Method in brief: as §1

[35] = target: Neu5Ac(a2-6)Gal(b1-4)GlcNAc(b1-2)Man(a1-3)[Man(a1-6)]Man(b1-4)GlcNAc(b1-4)GlcNAc
Method in brief: as §1

B1: Ecp6 (Cladosporium fulvum), B3VBK9 (protein)
chain: MQSMILFAAALMGAAVNGFVLPRTDDPDCETKATDCGSTSNIKYTVVKGDTLTSIAKKFKSGICNIVSVNKLANPNLIELGATLIIPENCSNPDNKSCVSTPAEPTETCVPGLPGSYTIVSGDTLTNISQDFNITLDSLIAANTQIENPDAIDVGQIITVPVCPSSQCEAVGTYNIVAGDLFVDLAATYHTTIGQIKALNNNVNPSKLKVGQQIILPQDCKNVTTAVA
[1]
  glycan array binding signal (z-score): -0.087
[2]
  glycan array binding signal (z-score): -0.086
[3]
  glycan array binding signal (z-score): -0.079
[4]
  glycan array binding signal (z-score): -0.102
[5]
  glycan array binding signal (z-score): -0.073
[6]
  glycan array binding signal (z-score): -0.099
[7]
  glycan array binding signal (z-score): -0.108
[8]
  glycan array binding signal (z-score): -0.091
[9]
  glycan array binding signal (z-score): -0.119
[10]
  glycan array binding signal (z-score): -0.092
[11]
  glycan array binding signal (z-score): -0.104
[12]
  glycan array binding signal (z-score): -0.099
[13]
  glycan array binding signal (z-score): -0.105
[14]
  glycan array binding signal (z-score): -0.081
[15]
  glycan array binding signal (z-score): -0.097
[16]
  glycan array binding signal (z-score): -0.004
[17]
  glycan array binding signal (z-score): -0.061
[18]
  glycan array binding signal (z-score): -0.088
[19]
  glycan array binding signal (z-score): -0.081
[20]
  glycan array binding signal (z-score): -0.064
[21]
  glycan array binding signal (z-score): -0.073
[22]
  glycan array binding signal (z-score): -0.064
[23]
  glycan array binding signal (z-score): -0.052
[24]
  glycan array binding signal (z-score): -0.087
[25]
  glycan array binding signal (z-score): -0.093
[26]
  glycan array binding signal (z-score): -0.092
[27]
  glycan array binding signal (z-score): -0.067
[28]
  glycan array binding signal (z-score): -0.087
[29]
  glycan array binding signal (z-score): -0.096
[30]
  glycan array binding signal (z-score): -0.086
[31]
  glycan array binding signal (z-score): -0.099
[32]
  glycan array binding signal (z-score): -0.084
[33]
  glycan array binding signal (z-score): -0.094
[34]
  glycan array binding signal (z-score): -0.085
[35]
  glycan array binding signal (z-score): -0.103
